Where “and” joins values, the source holds several entries; their conditions need not be identical. Equal entries are not always repeated. For part of these data: Shown are results outside the selection of hits, which stands elsewhere. Inconclusive results are not listed. This is a selection; strong and weak results do not stand in their true shares. Calls of active or inactive are those of the source. The call rests on the fitted dose curve; in most records, active means well fitted curve in the direction sought with a large enough effect in the repeat runs; inconclusive means weak or mixed curves; inactive means no such curve, though single readings can be large; an effect the other way counts as inactive or inconclusive.
Experiments:
[1] = Caspase-3/7 induction in CHO-K1 cells by small molecules, qHTS cell viability counter screen (AID 1346979); details: CellTiter-Fluor fluorescence, 17 h; at 92.4 µM (top of the series); further: nearly all actives have a fitted effect of over 35% in size
Summary of the method: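 CHO-K1 wt, 1,500 cells/well; 5hr pre-incubation 37C/5% CO2; compound pin transfer (DMSO); 16hr exposure; CellTiter-Fluor added, 1hr, fluorescence read.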

[2] = Caspase-3/7 induction in HepG2 cells by small molecules, qHTS cell viability counter screen (AID 1346981); details: CellTiter-Fluor fluorescence, 17 h; at 92.4 µM (top of the series); further: nearly all actives have a fitted effect of over 30% in size
Summary of the method: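 Counter screen for cytotoxicity: HepG2 exposed 16 hr to compounds, then CellTiter-Fluor viability signal (fluorescence, 1 hr reagent incubation).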

[3] = molecular target: Nuclear receptor subfamily 1 group I member 2 (Homo sapiens) (UniProt O75469); test: Human pregnane X receptor (PXR) small molecule agonists, qHTS assay (AID 1346982); further: nearly all actives have a fitted effect of over 35% in size; further: potency means the concentration at half of the fitted maximal effect
UniProt O75469, sequence (O75469 whole entry, looked up): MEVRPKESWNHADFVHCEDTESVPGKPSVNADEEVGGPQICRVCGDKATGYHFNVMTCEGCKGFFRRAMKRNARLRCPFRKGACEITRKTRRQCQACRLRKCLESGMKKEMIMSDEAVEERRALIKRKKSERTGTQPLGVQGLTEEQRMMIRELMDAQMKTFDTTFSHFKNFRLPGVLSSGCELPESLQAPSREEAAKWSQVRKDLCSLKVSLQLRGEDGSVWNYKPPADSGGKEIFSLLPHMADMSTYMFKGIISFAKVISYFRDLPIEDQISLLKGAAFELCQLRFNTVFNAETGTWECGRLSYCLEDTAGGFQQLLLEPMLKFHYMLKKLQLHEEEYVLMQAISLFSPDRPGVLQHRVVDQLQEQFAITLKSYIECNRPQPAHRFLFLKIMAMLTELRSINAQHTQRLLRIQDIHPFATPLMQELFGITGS
Summary of the method: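 Luminescence (ONE-Glo, 30 min RT) after 24 hr compound exposure of PXR-Luc HepG2 cells; cells rested 5 hr post-plating in 5% charcoal-stripped FBS medium.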
On the % scale 0 is the no-effect control and ±100 the full control effect.

Row | SMILES | activity change, negative = cytotoxicity [1] | activity change, negative = cytotoxicity [2] | Potency [3]
1 | COc1ccc2ccccc2c1 | inactive: -1.44% | inactive: 6.83% | 
2 | Nc1ccc(N)c([N+](=O)[O-])c1 |  |  | active: 5.45 µM
3 | CCCCCCCC1CCC(=O)O1 (centres undefined) | inactive: 11.3% | inactive: 0.112% | inactive
4 | O=C1Cc2ccccc2C1 |  | inactive: -3.99% | 
5 | CC(=O)N(C)C | inactive: 5.13% | inactive: 3.44% and inactive: 0.858% | 

Reference: PubChem BioAssay (Tox21)
